From patent CN116203146A (BEIJING DONGFANG BIOTECH CO LTD, dated 2023)

Target: 人单核细胞白血病细胞(THP-1)表面LILRB4 (human, UniProt Q8NHJ6 22-448)
Test: cell-based or functional assay

B1: 人源化抗LILRB4单克隆抗体HB-Ⅲ (human IgG1/Cκ) (antibody)
heavy: QVQLVQSGAEVKKPGASVKVSCKASGYTFTNYWMHWVRQAPGQGLEWIGEINPSNGRTNYNEKFKTRATLTVDTSTSTAYMELSSLRSEDTAVYYCARWGQLGLREGYYAVDYWGQGTLVTVSSASTKGPSVFPLAPSSKSTSGGTAALGCLVKDYFPEPVTVSWNSGALTSGVHTFPAVLQSSGLYSLSSVVTVPSSSLGTQTYICNVNHKPSNTKVDKRV[skipping human IgG1 Fc with changes]
light: DIVMTQSPSSLSASVGDRVTITCRASQDISNYLNWYQQKPGGAVKLLIYYTSRLHSGVPSRFSGSGSGTDYTFTISSLQPEDIATYFCQQGNTLPPTFGGGTKVEIKRTVAAPSVFIFPPSDEQLKSGTASVVCLLNNFYPREAKVQWKVDNALQSGNSQESVTEQDSKDSTYSLSSTLTLSKADYEKHKVYACEVTHQGLSSPVTKSFNRGEC
For B1, the “IC50, inhibition of ARG1 secretion by THP-1 cells in the presence of ApoE (arginase activity kit)” value was 30.6 µg/mL.
